Some of the results follow. Single values are uncertain, as repeats are few or missing.
System: COLO792
Experiment: cell count relative to DMSO control; melanoma cells; higher = more viable cells
Settings: library dose: low library concentration; 72 h
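Further: cell number obtained by counting DAPI-stained nuclei in high-throughput microscope images with image analysis software, screen run in 1,536-well plates.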

SMILES	cell count
Cn1cnc2c(F)c(Nc3ccc(Br)cc3Cl)c(C(=O)NOCCO)cc21 [selumetinib] + O=C(Oc1ccc([N+](=O)[O-])cc1)N1CCC(C(O)(c2ccc3c(c2)OCO3)c2ccc3c(c2)OCO3)CC1 [JZL184] (first compound 0.015 µM, partner dose 1 µM)	93.3%
Nc1ncn([C@H]2C[C@H](O)[C@@H](CO)O2)c(=O)n1 [decitabine] + O=C(Oc1ccc([N+](=O)[O-])cc1)N1CCC(C(O)(c2ccc3c(c2)OCO3)c2ccc3c(c2)OCO3)CC1 [JZL184] (first compound 0.1 µM, partner dose 1 µM)	86.8%
O=C(/C=C/c1cccnc1)NCCCCC1CCN(C(=O)c2ccccc2)CC1 + Cc1cc(SCc2sc(-c3ccc(C(F)(F)F)c(F)c3)nc2C)ccc1OCC(=O)O [GW0742] (first compound 0.01 µM, partner dose 2 µM)	53.3%
CS(=O)(=O)c1ccc(C(=O)Nc2ccc(Cl)c(-c3ccccn3)c2)c(Cl)c1 [vismodegib] + C/C(O)=C(\C#N)C(=O)Nc1cc(Br)ccc1Br [LFM-A13] (first compound 1 µM, partner dose 2 µM)	99.7%
CS(=O)(=O)CCNCc1ccc(-c2ccc3ncnc(Nc4ccc(OCc5cccc(F)c5)c(Cl)c4)c3c2)o1 [lapatinib] + Cc1cc(SCc2sc(-c3ccc(C(F)(F)F)c(F)c3)nc2C)ccc1OCC(=O)O [GW0742] (first compound 0.8 µM, partner dose 2 µM)	82.9%
NC1(c2ccc(-c3nc4ccn5c(=O)[nH]nc5c4cc3-c3ccccc3)cc2)CCC1 + C/C(O)=C(\C#N)C(=O)Nc1cc(Br)ccc1Br [LFM-A13] (first compound 0.4 µM, partner dose 2 µM)	59.9%
CC(=O)c1c(C)c2cnc(Nc3ccc(N4CCNCC4)cn3)nc2n(C2CCCC2)c1=O [palbociclib] + O=C(Oc1ccc([N+](=O)[O-])cc1)N1CCC(C(O)(c2ccc3c(c2)OCO3)c2ccc3c(c2)OCO3)CC1 [JZL184] (first compound 0.04 µM, partner dose 1 µM)	62.6%

From the supplement of paper PMC4604168 (melanoma cell lines)
